Experimental data from the supplement of paper PMC3334620.
In all, about 33,000 sequences were measured (“E-score (-0.5 to 0.5)”: median about -0.011, highest 2% from about 0.28 on). The list shows a part of the results.

What follows are sequences tested against T1, Gcr1 (UniProt P07261) (assay: PBM E-score (8-mer binding enrichment) (E-score (-0.5 to 0.5)); higher = stronger / more preferred TF binding; most listed sequences are background and not binding sites). Details: protein concentration: 100 nM; construct: GST-full length.
T1 sequence: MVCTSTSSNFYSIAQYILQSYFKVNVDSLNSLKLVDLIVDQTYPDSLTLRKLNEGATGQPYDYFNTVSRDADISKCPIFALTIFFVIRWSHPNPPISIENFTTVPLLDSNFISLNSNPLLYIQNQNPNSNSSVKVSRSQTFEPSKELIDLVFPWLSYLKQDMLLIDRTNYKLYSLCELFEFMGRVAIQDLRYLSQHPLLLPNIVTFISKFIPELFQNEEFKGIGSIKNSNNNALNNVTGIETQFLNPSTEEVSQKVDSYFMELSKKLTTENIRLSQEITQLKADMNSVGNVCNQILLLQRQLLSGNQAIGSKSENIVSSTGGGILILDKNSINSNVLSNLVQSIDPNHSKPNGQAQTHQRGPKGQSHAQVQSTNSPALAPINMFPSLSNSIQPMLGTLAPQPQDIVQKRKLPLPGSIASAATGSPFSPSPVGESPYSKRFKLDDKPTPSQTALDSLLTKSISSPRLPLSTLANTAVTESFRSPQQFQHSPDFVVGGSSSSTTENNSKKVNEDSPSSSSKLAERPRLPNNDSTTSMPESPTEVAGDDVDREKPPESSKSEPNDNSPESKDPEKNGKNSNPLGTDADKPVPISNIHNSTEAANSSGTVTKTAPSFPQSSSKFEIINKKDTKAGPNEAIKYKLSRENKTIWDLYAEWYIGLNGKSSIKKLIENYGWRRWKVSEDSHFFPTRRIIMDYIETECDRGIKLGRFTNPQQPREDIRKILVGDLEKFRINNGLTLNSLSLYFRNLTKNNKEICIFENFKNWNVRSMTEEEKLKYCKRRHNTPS
Outline: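 Masliner-normalised scans of fluorescent anti-GST signal were the basis for scoring. That signal came from GST-tagged yeast transcription factors applied at about 100-200 nM to double-stranded universal all-10-mer Agilent arrays on fresh or once-stripped slides. Each ungapped eight-base word, pooled with its reverse complement, received an E-score from the Universal PBM Analysis Suite.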

Compared with ACGACTCG, AGTAGGCA is higher in “PBM E-score” value: -0.0515 for the first, 0.0213 for the second.

First: AGTGACAA
Second: CCTCTCCG
The “PBM E-score” value of the first is lower: -0.177 for the first, 0.0712 for the second.

Compared with CCCAAAGC, AGTAACCC is lower in “PBM E-score” value: -0.00377 for the first, -0.201 for the second.

Going from TTACGAAA to AAGCCATT, the “PBM E-score” value falls from 0.147 to 0.00968.

First: AACTATTG
Second: CCCTCAAC
The “PBM E-score” value of the first is higher: 0.0588 for the first, -0.0626 for the second.

Going from CGATATCG to ACAGAAAC, the “PBM E-score” value rises from -0.149 to 0.12.

First: CGTATCTA
Second: CAGGTAAC
The “PBM E-score” value of the first is higher: 0.0661 for the first, 0.0272 for the second.

Going from AGGAGTGC to GAAACCTC, the “PBM E-score” value rises from -0.0158 to 0.0885.

First: AGATGAGG
Second: ACGGTCGG
The “PBM E-score” value of the first is higher: -0.0257 for the first, -0.285 for the second.

First: TGATCGCA
Second: CTAGAAAC
The “PBM E-score” value of the first is lower: -0.196 for the first, 0.158 for the second.

Compared with GGTGCCGA, AAGAAAGA is lower in “PBM E-score” value: 0.285 for the first, -0.0207 for the second.

Going from AATGCCCT to CCATGTAG, the “PBM E-score” value rises from -0.184 to 0.106.

Going from ATCTGACA to AGCTCTCG, the “PBM E-score” value rises from -0.179 to -0.166.

First: ACCGCCGT
Second: TAACCCTA
The “PBM E-score” value of the first is lower: -0.159 for the first, -0.112 for the second.

First: GCGTAGCA
Second: GAGGTCGC
The “PBM E-score” value of the first is higher: 0.0286 for the first, -0.055 for the second.

Compared with CGAGACTC, GACCGGGC is lower in “PBM E-score” value: -0.0581 for the first, -0.161 for the second.

Compared with AGTACCGG, AGAATACC is higher in “PBM E-score” value: -0.0999 for the first, 0.139 for the second.

Compared with CTAAGTAG, AACTCATT is lower in “PBM E-score” value: 0.127 for the first, -0.0827 for the second.

Going from CATGCATG to AGTGGCCA, the “PBM E-score” value rises from -0.186 to -0.182.

Compared with TAGTTTAA, TGTAGCAA is lower in “PBM E-score” value: 0.0204 for the first, -0.0217 for the second.

Compared with GCTCACCA, AAGCTTCC is higher in “PBM E-score” value: -0.201 for the first, 0.353 for the second.

Going from GGGCAGGA to ATTATGTC, the “PBM E-score” value rises from -0.0275 to 0.0363.

Compared with CTGTAGCC, GAATCGAC is higher in “PBM E-score” value: -0.0873 for the first, -0.0311 for the second.

First: CTAACCTA
Second: GAGACTGA
The “PBM E-score” value of the first is higher: 0.178 for the first, -0.00319 for the second.

Compared with CGCTTACA, GCCCATAA is lower in “PBM E-score” value: 0.0552 for the first, -0.144 for the second.

Going from AATTACCA to AAAAGTGT, the “PBM E-score” value falls from 0.0239 to -0.135.

Going from GGGACGTA to ATACGTAT, the “PBM E-score” value rises from -0.11 to 0.284.

First: AACGATTA
Second: ATCGGCGA
The “PBM E-score” value of the first is higher: 0.0433 for the first, -0.0387 for the second.

Compared with ATAGATTC, ACCCTGCA is lower in “PBM E-score” value: 0.114 for the first, 0.00618 for the second.

Going from ATGGCACG to CAACATGG, the “PBM E-score” value rises from -0.0809 to -0.0644.

First: GCTCCCCA
Second: CTTGGGCA
The “PBM E-score” value of the first is lower: -0.0939 for the first, -0.0858 for the second.

Going from ATAGATCC to AGACGAGA, the “PBM E-score” value rises from -0.127 to -0.111.

Going from CCTCTAAC to GGCTAAAA, the “PBM E-score” value falls from 0.191 to -0.0962.

Going from ACTGACAT to CGAATGAG, the “PBM E-score” value falls from 0.0661 to -0.0106.

Compared with ATTTTACG, AACTTTAT is lower in “PBM E-score” value: 0.337 for the first, 0.0964 for the second.

First: CAGTAATC
Second: AGACAAAG
The “PBM E-score” value of the first is higher: -0.024 for the first, -0.0272 for the second.

Compared with ACGATCCA, TAATAACA is higher in “PBM E-score” value: -0.0924 for the first, 0.0838 for the second.

First: GCCATGTA
Second: GATAGTCC
The “PBM E-score” value of the first is higher: 0.0899 for the first, -0.181 for the second.

First: AATTAGAT
Second: GCATCGCA
The “PBM E-score” value of the first is higher: 0.158 for the first, -0.13 for the second.

Compared with GCCGAAAC, AACGATAC is higher in “PBM E-score” value: -0.0212 for the first, 0.0304 for the second.

Compared with CTTAGTCA, AAGCTACG is higher in “PBM E-score” value: -0.199 for the first, 0.0781 for the second.

Compared with GTATTGGA, GATTGAGA is lower in “PBM E-score” value: 0.278 for the first, 0.117 for the second.

First: AAGGTTGG
Second: CCACTCCG
The “PBM E-score” value of the first is lower: -0.0801 for the first, 0.0815 for the second.

Compared with GTCCCCCA, CCTAAGAA is lower in “PBM E-score” value: 0.137 for the first, 0.00789 for the second.

Going from ATATTCAA to GGACAAGA, the “PBM E-score” value rises from 0.105 to 0.113.

Going from ACCGGATC to CCACGTAA, the “PBM E-score” value falls from 0.0302 to -0.0111.

Going from GCAATGCC to ATCCGTAC, the “PBM E-score” value falls from -0.0883 to -0.0926.

Compared with ACATGCAA, AGGCGGTC is higher in “PBM E-score” value: -0.0301 for the first, 0.00267 for the second.

First: CCTCGCGA
Second: CGATGAAC
The “PBM E-score” value of the first is lower: -0.235 for the first, -0.046 for the second.

Compared with ACAAGTGG, GGACCACC is lower in “PBM E-score” value: 0.201 for the first, 0.0412 for the second.

Compared with GGCCCACA, CCTGTTTA is higher in “PBM E-score” value: 0.085 for the first, 0.203 for the second.

First: CACGTGGC
Second: CGAGTAAG
The “PBM E-score” value of the first is lower: -0.125 for the first, -0.00561 for the second.

Going from GACAATCA to CTTAAACC, the “PBM E-score” value rises from -0.149 to 0.00401.

Compared with CTGAAACA, ATGGTAGA is lower in “PBM E-score” value: 0.154 for the first, -0.104 for the second.

Compared with AACACGGT, GAGGAGGC is higher in “PBM E-score” value: -0.0988 for the first, 0.0109 for the second.

Going from AGCTAGCT to AGTATTTA, the “PBM E-score” value rises from -0.233 to 0.101.

First: GCGATGAA
Second: AGCTAGTA
The “PBM E-score” value of the first is lower: 0.0618 for the first, 0.188 for the second.

Going from CTTCAAAC to AGGATACG, the “PBM E-score” value falls from 0.101 to 0.0713.

Compared with AGAAATAC, GGAACATA is lower in “PBM E-score” value: 0.13 for the first, -0.122 for the second.

First: CTAACGGA
Second: CTTTCTTC
The “PBM E-score” value of the first is higher: 0.032 for the first, -0.102 for the second.

First: CGATGTAG
Second: AACAAATT
The “PBM E-score” value of the first is lower: -0.0576 for the first, 0.0331 for the second.

First: GAATGAGA
Second: AGCATGGG
The “PBM E-score” value of the first is higher: -0.0237 for the first, -0.105 for the second.

Going from GAAAAGTA to AGTGAGCG, the “PBM E-score” value falls from 0.0278 to -0.228.

Going from GTAAATAC to AAGCAAGC, the “PBM E-score” value falls from 0.0283 to -0.116.

Compared with GGAGTGCA, TTGCGAAA is higher in “PBM E-score” value: 0.00026 for the first, 0.129 for the second.

Going from AAGTTTCC to AATGTGCA, the “PBM E-score” value rises from -0.0273 to 0.0217.

First: AGTGTAGC
Second: GCCTGCAA
The “PBM E-score” value of the first is higher: 0.147 for the first, -0.187 for the second.

First: AAGGGGTG
Second: ACTTCGAT
The “PBM E-score” value of the first is lower: -0.0311 for the first, 0.0644 for the second.

First: CGCTACTC
Second: CTAGAGGA
The “PBM E-score” value of the first is lower: -0.00841 for the first, 0.0502 for the second.

First: GTAGTCAC
Second: AGAGCTAG
The “PBM E-score” value of the first is higher: -0.13 for the first, -0.154 for the second.

Compared with ATACGATC, ACAGCAAT is lower in “PBM E-score” value: 0.108 for the first, -0.061 for the second.

Going from GAGCAGCA to CCGTTCCC, the “PBM E-score” value falls from 0.0693 to -0.017.

Going from AAAGAATC to GATCTGCC, the “PBM E-score” value falls from 0.137 to -0.014.

First: GAGGCGTA
Second: CGTGCTAG
The “PBM E-score” value of the first is higher: -0.197 for the first, -0.199 for the second.

Going from AGTAGCTG to AACTATAT, the “PBM E-score” value falls from 0.255 to 0.0836.

Going from GCGATTAA to CGTGTCAA, the “PBM E-score” value falls from 0.0139 to -0.109.

First: CAGTCCCG
Second: AGCTTGAA
The “PBM E-score” value of the first is higher: -0.103 for the first, -0.218 for the second.

Going from GAACTAAA to TCAGACCA, the “PBM E-score” value falls from 0.105 to -0.0609.

Compared with ACCATTTG, AAGATTTC is lower in “PBM E-score” value: 0.0682 for the first, 0.0455 for the second.

Going from ATCATCTG to GGAGCGCA, the “PBM E-score” value falls from 0.067 to -0.066.

Going from CAAGTTAC to CCTTTCAG, the “PBM E-score” value falls from 0.0552 to -0.117.

First: CCTTATGA
Second: CAATACCG
The “PBM E-score” value of the first is higher: 0.0451 for the first, -0.0222 for the second.

First: CGTGAGCA
Second: GACAGTGC
The “PBM E-score” value of the first is higher: 0.0225 for the first, -0.132 for the second.

Going from ACTTCTCA to AGTGCGTA, the “PBM E-score” value falls from 0.0468 to -0.143.

Compared with ACCACGTA, GAAGGATC is higher in “PBM E-score” value: -0.12 for the first, -0.104 for the second.

First: CGAGGAAG
Second: ATAGGCGG
The “PBM E-score” value of the first is lower: -0.00784 for the first, 0.00295 for the second.
